Laboratory results from paper PMC4336329 (PLoS ONE, 2015).
About 2,200 (0.71%) of roughly 310,000 compounds showed an effect of 50% or more. Effects have a minus sign here. The list shows a part of the results.

Target: human ether-à-go-go-related gene (hERG) potassium channel (human, UniProt Q12809)
Experiment: primary screen, population patch clamp on CHO cells stably expressing hERG

human ether-à-go-go-related gene (hERG) potassium channel, sequence (Q12809 whole entry, looked up): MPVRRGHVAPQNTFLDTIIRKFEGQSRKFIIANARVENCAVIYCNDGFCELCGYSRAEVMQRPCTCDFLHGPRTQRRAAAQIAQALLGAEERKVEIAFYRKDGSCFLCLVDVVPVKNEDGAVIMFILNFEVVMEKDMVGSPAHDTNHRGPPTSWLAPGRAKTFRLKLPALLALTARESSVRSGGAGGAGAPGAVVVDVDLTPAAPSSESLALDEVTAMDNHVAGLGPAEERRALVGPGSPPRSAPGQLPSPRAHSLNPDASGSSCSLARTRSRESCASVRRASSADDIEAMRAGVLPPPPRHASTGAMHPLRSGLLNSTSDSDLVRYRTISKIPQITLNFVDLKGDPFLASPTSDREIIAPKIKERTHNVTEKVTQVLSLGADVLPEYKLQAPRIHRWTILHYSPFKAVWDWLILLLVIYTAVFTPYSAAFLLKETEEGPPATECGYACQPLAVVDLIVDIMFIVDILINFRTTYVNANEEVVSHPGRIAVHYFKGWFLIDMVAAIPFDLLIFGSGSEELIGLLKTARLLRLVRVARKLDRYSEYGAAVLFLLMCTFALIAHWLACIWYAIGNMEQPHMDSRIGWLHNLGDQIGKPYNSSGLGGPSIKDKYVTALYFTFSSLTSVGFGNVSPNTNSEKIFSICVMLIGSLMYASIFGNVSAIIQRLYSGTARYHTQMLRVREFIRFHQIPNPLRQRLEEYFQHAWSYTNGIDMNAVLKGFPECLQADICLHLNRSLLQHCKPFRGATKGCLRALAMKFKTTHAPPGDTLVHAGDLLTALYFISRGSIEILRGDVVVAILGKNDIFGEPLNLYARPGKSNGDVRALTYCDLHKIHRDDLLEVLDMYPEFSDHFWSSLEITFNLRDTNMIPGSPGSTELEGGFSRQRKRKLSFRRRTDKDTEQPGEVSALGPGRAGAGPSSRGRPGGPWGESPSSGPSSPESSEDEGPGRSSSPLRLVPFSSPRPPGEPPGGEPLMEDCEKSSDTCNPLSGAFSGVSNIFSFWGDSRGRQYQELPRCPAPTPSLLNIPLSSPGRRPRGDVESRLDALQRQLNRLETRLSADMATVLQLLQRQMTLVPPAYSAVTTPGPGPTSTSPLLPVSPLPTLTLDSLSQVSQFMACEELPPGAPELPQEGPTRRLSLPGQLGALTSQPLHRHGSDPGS

| SMILES | hERG current change (%, negative = inhibition) at 1uM [%] |
| --- | --- |
| CC(C)c1ccc(O)c(NC(=S)NC(=O)c2ccc3c(c2)OCO3)c1 | 0.875 |
| CC(SCC(=O)O)c1nc2ccccc2[nH]1 (stereo not shown) | 11.2 |
| COc1ccc(-c2nnc(SCC(=O)N3CCCC3)o2)cc1OC | 5.37 |
| CC(=O)c1ccc(N2CCCCCC2)c(F)c1 | 0.156 |
| O=S1(=O)CCOC[C@H](CC2CCCCC2)N1Cc1cccc(C(F)(F)F)c1 | 9.51 |
| Cc1ccc(Cn2nc(C)c(NC(=O)c3cc(-c4ccc5c(c4)OCO5)on3)c2C)cc1 | 10.7 |
| COCCN(C(=O)C(=O)NC1CCCC1)C(C(=O)NC1CCCC1)c1ccccc1F (stereo not shown) | 13.5 |
| CCOC(=O)N1CCC(NC(=O)c2ccc(CS(=O)c3cccc(Cl)c3)o2)CC1 (stereo not shown) | 16 |
| Cc1ccc(C)c2sc(NC(=O)c3nc4ccccc4s3)nc12 | 2.28 |
| O=C(Nc1ccccc1)N1CCSCC1 | 4.03 |
| Cn1c(SCC(=O)c2c(N)n(C)c(=O)n(C)c2=O)nnc1-c1ccccc1 | -3.99 |
| O=S(=O)(NCC(c1cccnc1)N1CCN(c2ccccc2)CC1)c1cc(F)ccc1F (stereo not shown) | -16.8 |
| Cc1nc(C)c(-c2ccn(C(=O)NC(C)C)n2)s1 | 10.1 |
| Cc1ccccc1Cc1n[nH]c(=S)n1N | 12.5 |
| O=C(c1ccc2c3n(nc2c1)-c1ccccc1CO3)N1CCOCC1 | 0.232 |
| O=C(CSc1nc2ccccc2[nH]1)N/N=C/C=C\c1ccccc1[N+](=O)[O-] | 5.11 |
| O=C(/C=C/c1ccco1)Nc1cccc(C(=O)Nc2ccccc2C(=O)O)c1 | 3.04 |
| O=C(CSc1cccc[n+]1[O-])NC(=O)c1ccc(OC(F)F)cc1 | 9.68 |
| O=C(NNC(=O)C1CC(c2cccs2)=NO1)Nc1ccccc1 (stereo not shown) | 5.54 |
| CCOc1ccccc1N1CCN(C(=O)c2ccc(NS(=O)(=O)c3ccc4[nH]c(=O)[nH]c4c3)cc2)CC1 | 7.56 |
| COc1ccc(OCC(O)CNC(=O)c2ccc(C)cc2)cc1 (stereo not shown) | 12.1 |
| CC(CCc1ccccc1)NC(=O)/C=C/c1ccccc1 (stereo not shown) | 5.62 |
| O=C(O)C1CCCCC1C(=O)NCCc1ccc(F)cc1 (stereo not shown) | 12.7 |
| CSc1nc(N)c(C(=O)Nc2ccc([N+](=O)[O-])cc2)s1 | 1.39 |
| C/C=C/C=C/C(=O)[C@@H]1[C@@H]([C@]2(C)OC(=O)C(C)=C2O)[C@H]2/C(=C(O)/C=C/C=C/C)C(=O)[C@]1(C)C(=O)C2(C)O (stereo partly shown) | 6.53 |
